Residue numbers refer to the chain shown, from its start. Read-outs that look alike come from different tables or passages of the source.
B1: DOMAIN_18441 (protein, listed as Felis catus)
chain: AQAPLSFEDVAVSFSREEWRLLVPAQKDLYRDVMLENYRNLVSVGYQASEPGSLFQLEHAGPLRAVEGAAPRPPCPEEIWE
B2: DOMAIN_17925 (protein, listed as Otolemur garnettii)
chain: LPDSLTFTDVAIDFSQDEWEWLSLAQRSLYRKVMLENYMNLVSVGLCISKPDVISLLEQEKEPWMVTEQITRGLCADLEYM
B3: DOMAIN_18428 (protein, listed as Physeter macrocephalus)
chain: MAFRDVAVDFTQEEWMLLSPAQRSLYREVMLENYSNLVSLGIPFSKPKLITQLEQGKETWREERKCPPANGPPEPKPELHL
B4: DOMAIN_18155 (protein, listed as Sarcophilus harrisii)
chain: FQESLTFKDVAVDFTYEEWQQLNPDQRYLYRDVMLENYKNLVFLGHQISKPDVISQLEQGKEPWPIEREIFTYSCRDWETK
B5: DOMAIN_18483 (protein, listed as Monodelphis domestica)
chain: GQEEVTFKDVAVDFTREEWRLLSPPQKELYKEVMVENARNLLSVGLPAPTKDVLSYLKKRGAPVMLEQEGLRNYFPEGEIR
B6: DOMAIN_18203 (protein, listed as Monodelphis domestica)
chain: AQVLVTFQDVAVDFTQEEWRLLDPGQKELYKEVMLDNAQNMLFLGLPVPREDWFSHFHEGGASWMLEGEDPSNSGLDGERR
B7: DOMAIN_18345 (protein, listed as Monodelphis domestica)
chain: SQGSITFKDVAVDFTQEEWCLLDHSQKELYLEVMLENVQNLLSVGLPVPRENFISCLQQGKAPWLLAQKDSRNSCLEAKTN
B8: DOMAIN_17873 (protein, listed as Leptonychotes weddellii)
chain: QAEVTFEDVAVLFSREEWGRLGPAQRGLYRDVMLETYRNLVSLGAGPAGPKPGVITQLEQGDEPWVLDAQGAKGKERLRVS
B9: DOMAIN_18243 (protein, listed as Felis catus)
chain: AQESLTLEDVAVDFSREEWRLLAPAQKDLYRDVMLENYRNLVSVGHQASKPDVLARLERGEEPWAIEEEVRSGTSPETGKV
B10: DOMAIN_18458 (protein, listed as Monodelphis domestica)
chain: MLFQELVTFKDVAVDFTQEEWKCLAPSQKELYREVMLENYRNLVSLGRAVSKPELIHQLERGETPWRPKGDGWRNSLRPGE
B11: DOMAIN_18589 (protein, listed as Neomonachus schauinslandi)
chain: QPREAVTFKDVEVTFSQDEWGWLDPAQRNLYRDVMLENYGNVVSLVGPFTKPVLISWLEAREPWGLNVQGAQPKGKPGVAP
B12: DOMAIN_18385 (protein, listed as Neomonachus schauinslandi)
chain: SQGLVTFRDVALDFSQEEWEWLDPSQKDLYRDVMLENYRNLVWLGLSISKPNMISLLEQGKEPWMVEKEMSDGQCADWESW
B13: DOMAIN_18325 (protein, listed as Monodelphis domestica)
chain: SQGSITFKDVAVDFTQEEWCLLDPSQKELYREVMLENVQNLLFVETNFEVKEISTKQSLFVEGSGPPRGKNKGPCDFLLRE
B14: DOMAIN_18332 (protein, listed as Monodelphis domestica)
chain: NLEAVTFQDVAVEFTCEEWRHLAPPQKELYRDVMLENYKNLVRLGLAVSKPDVISQLERREAPWMPGGIQRSRCPDWEASC
B15: DOMAIN_18580 (protein)
chain: SQESVAFEDVAVYFTTKEWAIMVPAERALYRDVMLENYEAVAFVVPPTSKPALISHLEQGKESCFIRPQGVLSRSDWRAGL
modifications: Cercocebus atys
B16: DOMAIN_18323 (protein, listed as Monodelphis domestica)
chain: PQESVTFEDVAVYFTQKEWEGLAPAQRALYRDVMLENYGNLVSLAFLFPKPAVISQLEQGEKPWIQTPQRPLDKKKTYKGC
B17: DOMAIN_17898 (protein, listed as Enhydra lutris)
chain: QEPVTFADVAVLFTPEEWMFLDSAQRSLYRDVMLENYRNLASVGAGDQLGKPSMLSLSEPGEELWAPERRTFPGTRPEPQH
B18: DOMAIN_18303 (protein, listed as Monodelphis domestica)
chain: AQEVVTFQDVAVDFTREEWRLLSPPQKELYKEVMLENARNLLSVGLPAPPDDVVSYLEQREGPSMLDQEDLRTCGPEGEIR
B19: DOMAIN_18206 (protein, listed as Monodelphis domestica)
chain: PQGLVTFRDVAVDFTREEWRLLSPRQKELYKEVMLENAGNLLSLGLPVPREDVISYFEQKDVPWMLEQKALRSFCPGGPVK
B20: DOMAIN_18214 (protein, listed as Physeter macrocephalus)
chain: APLPLTFEDVAVYFSEQEWRNLEAWQKELYKQVMRTNYEILVSLDDGLPKPELISWLEQGRELFKNWGESQKSGNIICFSA
B21: DOMAIN_18103 (protein, listed as Monodelphis domestica)
chain: PQGSVTFRDVAVNFSQDEWGRLDPSQKELYREVMLENYHNLVCLGLAASKPDVIDQLERGEAPWMPGIGCPDQKIRSDTQE
B22: DOMAIN_17903 (protein, listed as Pongo sp.)
chain: EMGLLTFRDIAIEFSLAEWQCLDHAQRNLYRDVMLENYRNLVSLGIAVSKPDLITCLEQNKEPRNIKRNEMVAKHPGREKS
B23: DOMAIN_18100 (protein, listed as Neomonachus schauinslandi)
chain: AQGHVTFEDVAVYFSWEEWGLLDEAQRLLYRDVMLENFSLMASLGLASSMTHEITQLEWWREPFLPPCGVMTAAMPRDGRQ
B24: DOMAIN_18272 (protein, listed as Neomonachus schauinslandi)
chain: SLESDVFTDVAIVFSQEEWEQLAPAQRDLYRDVMLETYSNLVSLGLAIAKPDVISFLEEGKEPWVVEKTSRGGLCPVLESR
B25: DOMAIN_18498 (protein, listed as Aotus trivirgatus)
chain: VAFEDVAVNFTQEEWALLDPSQKNLYREVMQETLRNLASIGQRWSNQNAEDKHQNPRRNLRRLIGERLFQSKESHQHVEVL
B26: DOMAIN_18433 (protein, listed as Aotus trivirgatus)
chain: EPGTVSFGDVAVYFSREEWGCLRPAQRALYRDVMRETYSHLGALGVGGSKPALISWVEEEAELWGPAAQDPEVAKRPTEAD
B27: DOMAIN_18161 (protein)
chain: FQGSVTFTDVAIDFSQEEWRWLQPAQRDLYRCVMLENYGHLVSLGLSISKPDVVSLLEQGKEPWLGKRNVNRDLFSVSESR
modifications: Cercocebus atys
B28: DOMAIN_18502 (protein, listed as Myotis davidii)
chain: MVFEDVAVYFSREEWGLLDSAQRALYRQVMLENFALVASLGLSASRPRIVLQLERGEEPWVLSGLDVALARDAQRRPGPGE
B29: DOMAIN_18083 (protein, listed as Papio anubis)
chain: FQGSVSFKDVTVGFSQEEWQHLDPSQRALYRDVMLENYSNLVSVGYCVHKPEVIFRLEQGEEPWRLEEEFPSQSFPEVWTA
B30: DOMAIN_18426 (protein, listed as Physeter macrocephalus)
chain: B29 chain with G3E, S4L, S15T, S25T, A28S, H49T, R65I, S72R, T80K, A81I
B31: DOMAIN_18136 (protein, listed as Monodelphis domestica)
chain: IQESVTFKDVSVDFTWEEWRHLDPAQRDLYRNVMLENYENLVSVGISVSTVDMISLLEKRDGPWMPEGEVSGAICPDSLNE
B32: DOMAIN_10870 (protein)
chain: SQHLVTFEDVAVNFTQEEWTLLDQTQRDLYRDVMLENYQNLMALGSESCKPHVNSPLEGAEELRTRARRILQSEFMAESDL
modifications: Vicugna pacos
B33: DOMAIN_18048 (protein, listed as Aotus trivirgatus)
chain: AQKVLTFRDVAIEFSLEEWKFLDPAQQNLYRDVMLENYRNLFSIGLTVSKPGLITCLEQRKAPWNLKRREAVDGHIFFAEY
B34: DOMAIN_18536 (protein, listed as Camelus dromedarius)
chain: WKESLSFEDVALYFTREEWSRLDWAQKDLYRDVMLENYRNMIVLGFQFPKPEVICQLEQWEEPWILDLPRAGTRKASGSAC
B35: DOMAIN_17890 (protein)
chain: RLESVTFEDVAVYFTQNQWASLDPAQRALYGEVMLENYANVASLVAFPFPKPALISHLERGEAPWGPDPWDTKIPRGISQG
modifications: Cercocebus atys
B36: DOMAIN_18312 (protein, listed as Monodelphis domestica)
chain: IQGSLTFKDVAVDFTQEEWCLLDHSQKELYLEVMLENVQNLLSVGLPVPREYCTSYFQQEKARWLLEQKCPRSSSPEAETN
B37: DOMAIN_18356 (protein, listed as Monodelphis domestica)
chain: B36 chain with E17D, H24N, C53L, Y56C, E60G, K61E, R63P, K69E, C70V, S75C

Tested on: HBEGF locus
Format: cell-based, human
Conditions: high-throughput screen of dXR repression of the HBEGF gene
[1] = abundance of each domain in the library before and after diphtheria toxin selection, HEK293T cells

Molecule	Log2 (fold change) [1]	Log2 (fold change) (change in abundance of each domain in the library before and after diphtheria toxin selection)
B1	3.7534	–
B2	2.7982	–
B3	2.5903	–
B4	2.7528	–
B5	2.8259	–
B6	3.7912	–
B7	3.349	–
B8	3.4076	–
B9	3.5331	–
B10	3.1061	–
B11	3.039	–
B12	2.1472	–
B13	2.7636	–
B14	3.4328	–
B15	4.4477	–
B16	2.3956	–
B17	3.2117	–
B18	2.9174	–
B19	2.3929	–

Molecule	Log2 (fold change) [1]	Log2 (fold change) (change in abundance of each domain in the library before and after diphtheria toxin selection)
B20	2.6389	–
B21	2.7334	–
B22	2.4683	–
B23	2.3606	–
B24	2.9141	–
B25	2.7354	–
B26	3.4614	–
B27	2.6663	–
B28	3.4127	–
B29	2.9283	–
B30	2.8011	–
B31	2.7288	–
B32	–	2.5964
B33	2.5186	–
B34	3.2028	–
B35	4.2356	–
B36	2.8473	–
B37	3.1967	–

Source: US12551573B2, “Compositions and methods for the targeting of PCSK9” (Scribe Therapeutics Inc., priority 2022, dated 2026)
